Screen size: about 45,000 compounds; about 65 (0.1%) were called active. Calls come from the whole dose curve; as a rule, active = well fitted activation curve with a large enough effect; inconclusive = small, poorly fitted or top-dose-only effect; inactive = no such curve, though single readings can be large or run the other way. The list shows a part of the results.
Molecular target: Galactocerebrosidase (Homo sapiens) (UniProt P54803)
Test: A Novel Cell-Based Assay to Identify Small Molecules for B -Galactocerebrosidase; note: 0% is about no effect; nearly all actives have a fitted effect of over 65% in size
Conditions: 145M-Twi-hGALC-G270D cells (Twitcher mouse brain line with human GALC G270D), HMU-beta-Gal fluorescence, 48 h; series mostly up to 57.5 µM; activation: at the top concentration
From the text: Lysosomal storage diseases (LSDs) are caused by genetic mutations in genes encoding proteins important for normal lysosomal function. Globoid cell leukodystrophy (GLD), mostly known as Krabbe disease, is a prototype of the neurological LSDs caused by deficiency of beta-galactocerebrosidase (GALC). In brain specimens of GLD patients, psychosine levels are substantially elevated. At elevated concentrations, psychosine becomes cytotoxic to neuronal cells, particularly to oligodendrocytes (OLG), neural cells responsible for myelin formation. Therefore, the biochemical disturbances in GLD are manifested by different degrees of brain demyelination resulting in a broad spectrum of neurological manifestations. Most of the FDA-approved therapies are based on enzyme replacement therapeutic (ERT) agents, which treat non-neurological symptoms of Gaucher disease, Fabry disease, few mucopolysaccharidoses and Pompe disease. Unfortunately, in GLD, a primarily neurological LSD, ERT agents, as large molecular weight molecules unable to cross the blood-brain barrier, which makes this an inefficacious therapeutic approach. In GLD, increasing the residual GALC activity just above the critical threshold (~10% of wild type enzymatic activity), the cytotoxic levels of psychosine will be reduced, avoiding the OLGs apoptosis and the subsequent demyelination process. This will translate in disease stabilization and amelioration of GLD patient symptoms.
A cell-based assay in 1,536-well plate format was developed to implement a quantitative high-throughput screening (qHTS) assay using GLD-disease relevant cells to identify small molecules that produce enhancements of the residual enzymatic activity levels of mutants GALC found and prevalent in GLD patients. Compounds that are active may therefore have some therapeutic application for GLD. After the treatment of live cells for a determined period, using a fluorescent GALC specific substrate, the mutant residual GALC activity is measured. This cell-based qTHS assay was used to screen part of the MLPCN library for small molecule able to increase the mutant GALC enzymatic activity. In this assay, increased fluorescent signal corresponds to enhanced levels of mutant GALC residual enzymatic activity. Activation is the desired outcome for this assay.
NIH Chemical Genomics Center [NCGC]
NIH Molecular Libraries Probe Centers Network [MLPCN]
Assay Submitter (PI): Gustavo Maegawa MD,PhD, University of Florida, Gainesville, FL
2)#Two cell lines were established for the assay: 145M-Twi-hGALC-G270D (brain-derived Twitcher cell line stably expressing human GALC-G270D) and 145M-Twi-hGALC-WT (same 145M-Twi stably expressing human GALC wild type). The Twitcher is the murine C57B/6 model for GLD with naturally occurring homozygous nonsense GALC mutation. The 145M-Twi cell line was established at Maegawa lab (Ribbens J et al 2014).
a.#Media: DMEM/F12 (1:1) with 10% fetal bovine-serum (FBS) with penicillin/streptomycin (PS-1X - 100 I.U./mL of penicillin+100 ug/mL of streptomycin).
b.#The 6-Hexadecanoylamino-4-methylumbelliferyl-b-D-galactoside (HMU-B-gal) substrate was prepared as per Wiederschain et al 1992. Using 20-mL borosilicate tubes, 2.20 mg of HMU-b-Gal was added in each tube to prepare substrate-film with a final air-nitrogen stream evaporation to remove all diluent solvents.
c.#The HMUb-Gal substrate buffer consists of 0.2 M Na2HPO4 (sodium phosphate dibasic)/ 0.1 M Citric Acid with the pH adjusted to 5.2 using HCl. Sodium Azide at 0.02% and Sodium Taurocholate (NaTC) at 1 mg/mL were added to this substrate buffer.
d.#The HMU-b-Gal stopping buffer consist of 0.5 M NaHCO3 (sodium bicarbonate) /0.5 M Na2CO3 (sodium carbonate). […] Triton X-100 at 0.25% was added.
4)#Preparation of HMU-b-Gal substrate tubes
Adding 18.6 mL of the HMUb-Gal substrate buffer to each 20-mL tube (2.20 mg of HMU-b-Gal) will reach a concentration of 0.2 mM. Vortex well the tube until the solution is fully homogenized (clear cloudy solution). […]

UniProt P54803, sequence (P54803 whole entry, looked up): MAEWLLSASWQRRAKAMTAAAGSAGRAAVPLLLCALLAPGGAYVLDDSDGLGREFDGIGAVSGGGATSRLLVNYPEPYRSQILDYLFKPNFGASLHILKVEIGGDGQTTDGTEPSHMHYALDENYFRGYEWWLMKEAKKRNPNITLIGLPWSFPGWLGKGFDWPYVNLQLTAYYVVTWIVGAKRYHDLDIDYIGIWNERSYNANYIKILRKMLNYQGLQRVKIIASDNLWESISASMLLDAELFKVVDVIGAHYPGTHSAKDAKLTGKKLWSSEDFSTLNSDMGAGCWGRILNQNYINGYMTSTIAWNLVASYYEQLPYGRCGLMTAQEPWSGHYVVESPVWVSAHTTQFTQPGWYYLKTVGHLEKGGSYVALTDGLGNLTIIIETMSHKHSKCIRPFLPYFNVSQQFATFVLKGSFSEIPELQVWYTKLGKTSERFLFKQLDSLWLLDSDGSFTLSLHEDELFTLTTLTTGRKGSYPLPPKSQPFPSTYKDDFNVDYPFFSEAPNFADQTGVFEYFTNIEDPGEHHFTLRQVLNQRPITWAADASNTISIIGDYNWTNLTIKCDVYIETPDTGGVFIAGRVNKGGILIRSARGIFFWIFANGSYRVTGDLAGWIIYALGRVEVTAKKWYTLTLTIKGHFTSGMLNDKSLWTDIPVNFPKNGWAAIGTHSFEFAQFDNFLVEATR

activation, inactive:
Cn1c(=O)c2nc(SCC(=O)Nc3ccc(Cl)c(Cl)c3)n(C)c2n(C)c1=O -8.13%
Cc1cc(C)cc(NC(=O)Cn2cc(C(=O)c3ccccc3)c(=O)c3ccc(C)nc32)c1 -11%
CCCCC(CC)CN=C(N)NC(N)=NCCCCCCN=C(N)NC(N)=NCC(CC)CCCC (stereo not given) -35.7%
Cc1ccc(CN(Cc2ccco2)c2cnc(S(C)(=O)=O)nc2C(=O)Nc2ccccc2Br)o1 -5.69%
COc1ccc(CNC(=O)Cn2nc(C)c3c(C)n(-c4ccccc4)nc3c2=O)cc1OC 0.774%
Cc1cccc(-c2nc(C(N)=O)c3c(n2)n(-c2ccc4c(c2)OCO4)c(=O)n3C)c1 -3.12%
COc1ccc(N(C)C(=O)c2cc(S(=O)(=O)N3CCc4ccccc43)cn2C)c(OC)c1 -10.7%
CCc1ccc(C2CC(=O)Oc3c2c(=O)n(C)c2ccccc32)cc1 (stereo not given) -7.02%
CCCCc1ccc(NC(=O)C2(C)Cc3ccccc3C(=O)O2)cc1 (stereo not given) -19.5%
O=C(Nc1ccc(Cl)cc1)c1cc2c(-c3ccccc3)nn(-c3ccccc3)c2s1 2.74%
Cc1nn(CC(=O)N2CCCCC2)c(=O)c2cc3occc3n12 -11.2%
CCN(CC)CCNC(=O)COc1ccc(Cl)cc1 -16.3%
Cc1ccc(-n2c3nc(=O)[nH]c(=O)c-3cc3c(C)nn(-c4ccccc4)c32)c(C)c1 -9.42%
Cc1ccc(Cl)cc1NC(=O)CCS(=O)(=O)c1ccc2c(c1)n(C)c(=O)c(=O)n2C -9.09%
COC(=O)CN1C(=O)C(O)(CC(=O)c2ccc(F)cc2)c2ccccc21 (stereo not given) -12.4%
CCOC(=O)CSc1nc2ccc(NC(=O)COc3ccccc3C)cc2s1 -7.47%
CC(NC(=O)C1CCN(S(=O)(=O)c2ccc3nc4c(c(C(=O)O)c3c2)CCCC4)CC1)c1ccccc1 (stereo not given) -8.92%
CC(C)Cn1cc(NC(=O)NCc2ccccc2Cl)c2ccccc2c1=O -24.1%
CCc1ccc(-n2c(SCc3cccc(F)c3)nc3[nH]ncc3c2=O)cc1 -3.81%
O=C(CSc1oc(-c2ccccc2)nc1S(=O)(=O)c1ccccc1)c1ccccc1 -12.7%
Cc1ccc(NC(=O)CCS(=O)(=O)c2cc(Br)cc3c2N(C(=O)C2CC2)CC3)cc1 -13.5%
COc1cccc(NC(=O)c2ccc3nc(Cc4ccccc4)oc3c2)c1 -37.1%
Cc1ccc(-n2c(-c3ccco3)nc3c(cnn3-c3ccccc3C)c2=O)cc1 11.4%
COCCn1c(=N)c(C(=O)NCc2ccco2)cc2c(=O)n3cc(C)ccc3nc21 -8.99%
COC(=O)c1cc(NS(=O)(=O)c2cc(Br)cc3c2N(C(C)=O)CC3)cc(C(=O)OC)c1 16.3%
CC(C)OC(=O)c1cc(C(=O)OC(C)C)cc([N+](=O)[O-])c1 -14.3% [at 114 µM]
Cc1nn(-c2ccccc2)c(OC(=O)C(C)(C)C)c1Sc1ccccc1 -18.8%
Cc1ccc2nc(NCCc3ccccc3)c3nncn3c2c1 -9.89%
Cc1ccc(Cn2c(SCc3ccc(C(=O)NC4CCCC4)cc3)nc3ccncc32)cc1 -17.3%
CCn1c(=O)cc(OCC(=O)Nc2ccc(C)c(F)c2)c2ccccc21 -9.75%
O=c1oc2ccccc2cc1-c1cn2cc(Cc3ccccc3F)sc2n1 -9.53%
CCc1ccc(-n2c(=O)c3cccnc3n2CC(=O)Nc2ccccc2C(F)(F)F)cc1 -23.3%
N#Cc1c(NC(=O)CS(=O)(=O)c2ccc(Cl)cc2)sc2c1CCCCC2 -14.3%
COc1ccc(-c2cn3c(n2)sc2cc(C(=O)Nc4cc(OC)cc(OC)c4)ccc23)cc1 -14.3%
COc1ccc(-c2ccc(CCC(=O)O)n2CC(=O)Nc2cccc(C(F)(F)F)c2)cc1 -14.4%
CCCC(=O)c1ccc(OC(=O)c2c(-c3ccccc3Cl)noc2C)cc1 -13.2%
Cc1nnc(NC(=O)C(=O)c2cc(C)n(-c3ccc(C)c(C)c3)c2C)s1 -30.7%
Cc1ccc(C(=O)Nc2ccc3oc(-c4ccncc4)nc3c2)c(Cl)c1 -19.6%
Cc1cccc(-n2c(=O)c3c(c4cc(C)ccc4n3C)n(CC(=O)Nc3ccc(C)cc3C)c2=O)c1 -4.98%
COc1cc(-c2cc(OC)c3c(C)oc(C)c3c(=O)c2)ccc1OC(=O)c1ccccc1F -16.5%
CCOc1ccc(-c2cc(C(=O)NCCc3ccc(Cl)cc3)c3ccccc3n2)cc1 -20.7%
COc1ccccc1-c1nc(CNC(=O)Nc2ccccc2)c(C)o1 1.06%
COc1ccccc1C(=O)NC1=NC(c2ccc(Br)cc2)CC(=O)N1 (stereo not given) -3.54%
COc1ccc(N2CCN(C(=O)c3ccc4c(Cl)c5c(nc4c3)CCCC5)CC2)cc1 -12.3%
CCOC(=O)c1c(NC(C)=O)c2c3c(sc2n1Cc1nc(-c2cccc(C)c2)oc1C)CCCC3 -8.13%
CCCCCCNC(=O)n1cc(F)c(=O)[nH]c1=O -17.8%
COc1ccc(CN2C(=O)N(c3ccc(C)cc3)C(=O)C2CC(=O)Nc2ccccc2)cc1OC (stereo not given) -12.3%
O=[N+]([O-])c1cc(-c2nc(-c3ccccc3)no2)ccc1NC1CCCC1 3.66%
CCCn1c2ccccc2c2cnn(CC(=O)NCCc3ccc(C)cc3)c(=O)c21 1.59%
Cc1ccc(Cl)cc1NC(=O)C1CCN(c2nc3ccccc3n3cccc23)CC1 1.18%
CCOc1ccc2nc(N3CCCC(C(=O)NCc4ccccc4OC)C3)sc2c1 (stereo not given) -5.56%
Cc1nnc2c3ccccc3nc(Nc3cccc(O)c3)n12 -5.11%
CCCCOC(=O)c1ccc(Nc2nnc(-n3nc(C)cc3C)c3ccccc23)cc1 6.51%
COc1ccc(-c2noc(CN(C(=O)c3cc(OC)c(OC)cc3OC)C(C)C)n2)cc1 18%
COc1cc(C2C(C(=O)Nc3ccccc3)=C(C)Nc3nnnn32)cc(OC)c1OC (stereo not given) -2.9%
O=C(NC1CC(=O)N(c2ccc(Cl)cc2)C1)c1ccc(S(=O)(=O)N2CCOCC2)cc1 (stereo not given) -3.7%
CCOC(=O)c1ccc(NC(=O)c2nc(SCc3ccccc3F)ncc2Cl)cc1 -9.06%
COc1ccc(-c2noc(CSc3nc(N)cc(=O)[nH]3)n2)cc1OC -12%
CCc1nn(CC(=O)NCCCOC)c(=O)c2cc3ccccc3n12 -8.11%
Cc1ccc(CN2CCCn3nc(C(=O)NCC(C)c4ccccc4)cc3C2=O)cc1 (stereo not given) -1.83%
COCCn1c(=O)[nH]c2cc(C(=O)Nc3cccc(C(C)=O)c3)ccc2c1=O -4.16%
COc1ccc(Nc2oc(/C=C/c3ccc(OC)c(OC)c3)nc2C#N)cc1 -17.4%
CC(=O)Nc1ccn(C2COC(COC(=O)c3ccccc3)O2)c(=O)n1 (stereo not given) -7.01%
Cc1cc(C)c2oc(C(=O)Nc3ccc(S(=O)(=O)Nc4nccc(C)n4)cc3)cc(=O)c2c1 -7.07%
CCOc1ccc(S(=O)(=O)Nc2cc(Cl)ccc2OC)c2cccnc12 -33.7%
Cc1ccc(/C=C/c2onc(C)c2S(=O)(=O)N2CCC(C(=O)Nc3cc(F)ccc3F)CC2)cc1 -0.706%
COc1ccc2oc(-c3cccc(NC(=O)c4sc5c([N+](=O)[O-])cccc5c4Cl)c3)nc2c1 2.04%
Cc1cccc(C)c1Nc1c(-c2ccc(O)cc2)nc2sccn12 5.9%
O=c1oc2ccccc2cc1-c1cn2cc(Cc3ccc(Br)cc3)sc2n1 2.17%
O=c1c2sc3ccccc3c2n(Cc2cccc(C(F)(F)F)c2)c(=O)n1Cc1ccc(F)cc1 -5.98%
Cc1cc(C)cc(-n2ccn(Cc3ccc(F)cc3)c(=O)c2=O)c1 -2.13%
CCOc1ccc(S(=O)(=O)NCCc2sc3nc(-c4ccc(C)cc4)nn3c2C)cc1 -13.4%
CCCn1c(CCC(=O)Nc2ccccc2OC)nc2cccnc21 -15%
Cc1ccc(-c2cn(-c3ccc(Cl)cc3)c(S(=O)(=O)CC(=O)Nc3ccccc3)n2)cc1 -11.3%
COc1cccc2c1C(=O)c1c(O)c3c(c(O)c1C2=O)C[C@@](O)(C(=O)CO)C[C@@H]3O[C@H]1C[C@H](N)[C@H](O[C@@H]2CCCCO2)[C@H](C)O1 -22%
COc1ccc(NC(=O)CC2C(=O)N(c3cccc(OC)c3)C(=O)N2Cc2ccc3c(c2)OCO3)cc1 (stereo not given) -21.4%
COc1ccc(S(=O)(=O)c2nnn(-c3ccc(C)c(Cl)c3)c2C)cc1 -34.5%
Cc1cc(C)cc(NC(=O)C2CCN(S(=O)(=O)c3cccc(-c4noc(C)n4)c3)CC2)c1 -13.5%
O=C(CC1N=C2c3ccccc3N=C(SCC(=O)Nc3ccccc3F)N2C1=O)NCc1cccs1 (stereo not given) -17.1%
Cc1cccc(NC(=O)C(=O)NCCc2csc(-c3ccc(C(F)(F)F)cc3)n2)c1C -4.52%
Fc1ccc(Br)cc1C1C=C(c2ccc(Br)cc2)Nc2nnnn21 (stereo not given) -8.38%
CC1=Nc2cc(C(=O)NC(C)C)ccc2Sc2ccc(C)cc21 -27.6%
Cc1ccc(CNC(=O)CCCN2C(=O)COc3ccc(C)cc32)cc1 -8.43%
Cc1ccc(NC(=O)c2c(NC(=O)c3ccccc3)sc3c2CCC3)cc1 -10.4%
Cc1ccc2sc(N(Cc3cccnc3)C(=O)C3COc4ccccc4O3)nc2c1C (stereo not given) -16%
CC1CCc2c(sc(NC(=O)c3cc(-c4ccc(F)cc4)on3)c2C(N)=O)C1 (stereo not given) 0.111%
CC(C)Cn1c(=O)c2sccc2n2c(CCCC(=O)NC3CCCCC3)nnc12 6.92%
COc1cccc(CNC(=O)CCCn2nc(C)c3c(C)n(-c4ccc(C)cc4)nc3c2=O)c1OC 1.53%
CCN(CC)CCNC(=O)c1ccc(-n2c(-c3ccccc3)cc3c2CCCC3)cc1 -5.03%
CCc1ccc(CN(C(=O)c2cc(=O)c3ccc(C)cc3o2)C2CCS(=O)(=O)C2)cc1 (stereo not given) -6.77%
Cc1cc(=O)n2[nH]c(NC(=O)c3cccc(Cl)c3)nc2n1 -15.6%
COc1ccc(CNC(=O)Cn2ncc3c(=O)oc4ccc(C)cc4c32)c(OC)c1 -13.3%
COc1ccc(-c2nc(CN3CCC(C(=O)NCc4ccc(F)cc4)CC3)c(C)o2)cc1OC -7.87%
CCCC(=O)Nc1nnc(SCc2cc(=O)n3cccc(C)c3n2)s1 -7.26%
CC#C[C@]1(O)CC[C@H]2[C@@H]3CCC4=CC(=O)CCC4=C3[C@@H](c3ccc(N(C)C)cc3)C[C@@]21C -42%

— PubChem BioAssay AID1159614 (National Center for Advancing Translational Sciences (NCATS), 2016)
